Test results from PMC3688683, “The N-Terminal Domains of Vps3 and Vps8 Are Critical for Localization and Function of the CORVET Tethering Complex on Endosomes” (PLoS ONE, 2013).
Results are given in words; binding and its absence hold for the method and conditions named. In cells and extracts the contact can be indirect. Some results given as binding are weak or reduced against the parent protein; the word gives no strength. Where a sequence is shown, tags or fusion partners need not be part of it.

What was measured:
Experiment in all cases: co-IP; small-scale TAP purification: C-terminally TAP-tagged Vps8 or Vps3 (full-length or truncated) captured from yeast lysate (50 mM HEPES/KOH pH 7.4, 300 mM NaCl, 0.15% NP-40, 2 mM MgCl2, 1 mM DTT) on IgG beads, 1.5 h at 4°C; eluted with glycine pH 2.5 or TEV protease; Western blot with anti-Cbp, anti-HA, anti-Vps11; also with overproduced Vps8ΔN and from vps21Δ and vps21Δ ypt52Δ ypt53Δ ypt7Δ strains
[1] = target: T1, Vps3ΔN-TAP (C-terminal domain of Vps3, from residue 427, C-terminal TAP tag) (yeast (genomic locus of BY4741/BY4733 strains)) (UniProt P23643)
T1 sequence: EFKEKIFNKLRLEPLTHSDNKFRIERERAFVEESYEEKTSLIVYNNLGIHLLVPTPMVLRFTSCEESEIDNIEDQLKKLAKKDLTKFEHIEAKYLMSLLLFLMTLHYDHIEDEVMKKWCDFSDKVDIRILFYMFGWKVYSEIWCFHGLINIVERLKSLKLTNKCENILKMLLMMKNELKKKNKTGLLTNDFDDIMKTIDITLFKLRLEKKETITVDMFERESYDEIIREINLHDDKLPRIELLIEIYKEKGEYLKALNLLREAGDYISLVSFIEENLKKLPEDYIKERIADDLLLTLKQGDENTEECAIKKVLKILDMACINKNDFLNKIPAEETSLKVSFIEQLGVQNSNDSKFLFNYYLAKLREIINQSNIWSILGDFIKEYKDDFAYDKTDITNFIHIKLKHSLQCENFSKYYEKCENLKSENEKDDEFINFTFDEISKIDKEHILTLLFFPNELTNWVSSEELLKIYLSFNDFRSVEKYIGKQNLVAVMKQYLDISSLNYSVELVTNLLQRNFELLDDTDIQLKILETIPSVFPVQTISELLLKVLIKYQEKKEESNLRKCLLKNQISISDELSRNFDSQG

[2] = target: T2, Vps3ΔC-TAP (N-terminal domain of Vps3, up to residue 426, C-terminal TAP tag) (yeast (genomic locus of BY4733 strains)) (UniProt P23643)
T2 sequence: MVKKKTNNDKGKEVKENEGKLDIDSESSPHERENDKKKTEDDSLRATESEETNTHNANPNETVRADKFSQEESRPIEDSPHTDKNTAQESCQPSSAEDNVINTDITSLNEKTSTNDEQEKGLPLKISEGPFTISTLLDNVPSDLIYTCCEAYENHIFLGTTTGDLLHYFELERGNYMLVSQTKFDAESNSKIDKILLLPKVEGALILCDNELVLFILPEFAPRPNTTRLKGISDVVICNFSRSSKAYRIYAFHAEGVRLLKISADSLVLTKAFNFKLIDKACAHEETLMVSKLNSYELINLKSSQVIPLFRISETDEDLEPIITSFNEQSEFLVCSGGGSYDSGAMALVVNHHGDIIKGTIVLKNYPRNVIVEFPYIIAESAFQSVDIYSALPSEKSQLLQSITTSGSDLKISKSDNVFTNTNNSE

[3] = target: T3, Vps3-TAP (full-length Vps3, C-terminal TAP tag) (yeast (genomic locus of BY4741/BY4733 strains)) (UniProt P23643)
T3 sequence: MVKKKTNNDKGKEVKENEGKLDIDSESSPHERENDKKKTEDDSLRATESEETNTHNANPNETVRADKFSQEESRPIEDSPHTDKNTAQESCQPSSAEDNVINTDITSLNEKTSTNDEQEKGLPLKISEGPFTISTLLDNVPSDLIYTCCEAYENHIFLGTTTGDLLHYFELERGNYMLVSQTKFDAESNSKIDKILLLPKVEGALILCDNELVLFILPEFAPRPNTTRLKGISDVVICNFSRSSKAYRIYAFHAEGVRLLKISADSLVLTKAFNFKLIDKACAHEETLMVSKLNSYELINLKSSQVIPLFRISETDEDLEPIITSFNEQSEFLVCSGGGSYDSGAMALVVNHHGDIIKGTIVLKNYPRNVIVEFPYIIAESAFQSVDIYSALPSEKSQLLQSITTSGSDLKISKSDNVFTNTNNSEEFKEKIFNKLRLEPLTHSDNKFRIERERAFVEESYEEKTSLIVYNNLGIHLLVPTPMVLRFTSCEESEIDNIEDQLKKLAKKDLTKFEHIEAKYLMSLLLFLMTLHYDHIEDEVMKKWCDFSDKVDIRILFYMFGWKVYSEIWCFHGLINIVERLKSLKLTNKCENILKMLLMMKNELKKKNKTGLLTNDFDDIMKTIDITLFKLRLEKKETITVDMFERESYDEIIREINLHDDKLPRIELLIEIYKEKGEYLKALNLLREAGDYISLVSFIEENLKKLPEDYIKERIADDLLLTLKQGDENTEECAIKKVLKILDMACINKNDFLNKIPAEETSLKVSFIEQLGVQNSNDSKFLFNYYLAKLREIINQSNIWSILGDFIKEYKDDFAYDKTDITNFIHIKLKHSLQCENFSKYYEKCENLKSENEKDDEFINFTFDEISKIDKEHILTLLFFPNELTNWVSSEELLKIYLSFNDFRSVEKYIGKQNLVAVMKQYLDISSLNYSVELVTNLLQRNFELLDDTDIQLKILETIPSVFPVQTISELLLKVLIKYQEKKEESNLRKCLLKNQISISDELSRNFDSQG

binding [1]: binds
binding [2]: no binding
binding [3]: binds
B1: Vps8-3HA (full-length Vps8, C-terminal 3xHA tag) (protein, UniProt P39702 1-1274)
chain: MEQNGLDHDSRSSIDTTINDTQKTFLEFRSYTQLSEKLASSSSYTAPPLNEDGPKGVASAVSQGSESVVSWTTLTHVYSILGAYGGPTCLYPTATYFLMGTSKGCVLIFNYNEHLQTILVPTLSEDPSIHSIRSPVKSIVICSDGTHVAASYETGNICIWNLNVGYRVKPTSEPTNGMTPTPALPAVLHIDDHVNKEITGLDFFGARHTALIVSDRTGKVSLYNGYRRGFWQLVYNSKKILDVNSSKEKLIRSKLSPLISREKISTNLLSVLTTTHFALILLSPHVSLMFQETVEPSVQNSLVVNSSISWTQNCSRVAYSVNNKISVISISSSDFNVQSASHSPEFAESILSIQWIDQLLLGVLTISHQFLVLHPQHDFKILLRLDFLIHDLMIPPNKYFVISRRSFYLLTNYSFKIGKFVSWSDITLRHILKGDYLGALEFIESLLQPYCPLANLLKLDNNTEERTKQLMEPFYNLSLAALRFLIKKDNADYNRVYQLLMVVVRVLQQSSKKLDSIPSLDVFLEQGLEFFELKDNAVYFEVVANIVAQGSVTSISPVLFRSIIDYYAKEENLKVIEDLIIMLNPTTLDVDLAVKLCQKYNLFDLLIYIWNKIFDDYQTPVVDLIYRISNQSEKCVIFNGPQVPPETTIFDYVTYILTGRQYPQNLSISPSDKCSKIQRELSAFIFSGFSIKWPSNSNHKLYICENPEEEPAFPYFHLLLKSNPSRFLAMLNEVFEASLFNDDNDMVASVGEAELVSRQYVIDLLLDAMKDTGNSDNIRVLVAIFIATSISKYPQFIKVSNQALDCVVNTICSSRVQGIYEISQIALESLLPYYHSRTTENFILELKEKNFNKVLFHIYKSENKYASALSLILETKDIEKEYNTDIVSITDYILKKCPPGSLECGKVTEVIETNFDLLLSRIGIEKCVTIFSDFDYNLHQEILEVKNEETQQKYLDKLFSTPNINNKVDKRLRNLHIELNCKYKSKREMILWLNGTVLSNAESLQILDLLNQDSNFEAAAIIHERLESFNLAVRDLLSFIEQCLNEGKTNISTLLESLRRAFDDCNSAGTEKKSCWILLITFLITLYGKYPSHDERKDLCNKLLQEAFLGLVRSKSSSQKDSGGEFWEIMSSVLEHQDVILMKVQDLKQLLLNVFNTYKLERSLSELIQKIIEDSSQDLVQQYRKFLSEGWSIHTDDCEICGKKIWGAGLDPLLFLAWENVQRHQDMISVDLKTPLVIFKCHHGFHQTCLENLAQKPDEYSCLICQTESNPKIV
